From patent publication US11618753B2 (priority 2018, dated 2023)

These compounds were tested on MLKL phosphorylation, HT29-L23 human colorectal adenocarcinoma cells (assay: cells). Conditions: read-out: pMLKL HCS Cell Assay (IC50, uM).

| Compound | IC50 |
| --- | --- |
| COc1ncc(-c2cc(C(F)(F)F)c3c(N)ncnn23)cc1C(=O)N[C@@H]1CN(C(=O)C2CCC(F)(F)CC2)C[C@@H]1F [Example 300, 5-[4-amino-5-(trifluoromethyl)pyrrolo[2,1-f][1,2,4]triazin-7-yl]-N-[(3R,4S)-1-(4,4-difluorocyclo-hexanecarbonyl)-4-fluoro-pyrrolidin-3-yl]-2-methoxy-pyridine-3-carboxamide] | 0.126 µM |
| COCCn1cncc1CN1CC(F)C(NC(=O)c2cc(-c3cc(C(F)(F)F)c4c(N)ncnn34)cnc2OC)C1 (racemic) [Example 223, 5-[4-amino-5-(trifluoromethyl)pyrrolo[2,1-f][1,2,4]triazin-7-yl]-N-(4-fluoro-1-{[1-(2-methoxyethyl)-1H-imidazol-5-yl]methyl}pyrrolidin-3-yl)-2-methoxypyridine-3-carboxamide] | 0.412 µM |
| Cc1ccc(-c2cc(C(F)(F)F)c3c(N)ncnn23)cc1C(=O)N[C@@H]1CN(C(=O)CC(O)(C(F)(F)F)C(F)(F)F)C[C@@H]1F [Example 994, 5-[4-amino-5-(trifluoromethyl)pyrrolo[2,1-f][1,2,4]triazin-7-yl]-N-[(3R,4S)-4-fluoro-1-[4,4,4-trifluoro-3-hydroxy-3-(trifluoromethyl)butanoyl]pyrrolidin-3-yl]-2-methylbenzamide] | 0.0013 µM |
| Nc1ncnn2c(-c3ccc(C(F)(F)F)c(C(=O)N[C@@H]4CN(C(=O)C5CCC(F)(F)CC5)C[C@@H]4F)c3)cc(C(F)(F)F)c12 [Example 903, 5-[4-amino-5-(trifluoromethyl)pyrrolo[2,1-f][1,2,4]triazin-7-yl]-N-[(3R,4S)-1-(4,4-difluorocyclohexanecarbonyl)-4-fluoropyrrolidin-3-yl]-2-(trifluoromethyl)benzamide] | 0.058 µM |
| Cc1cc(F)c(-c2cc(C(F)(F)F)c3c(N)ncnn23)cc1C(=O)N[C@@H]1CN(C(=O)CC(C)C(F)(F)F)C[C@@H]1F (stereo partly drawn) [Example 801, 5-[4-amino-5-(trifluoromethyl)pyrrolo[2,1-f][1,2,4]triazin-7-yl]-4-fluoro-N-[(3R,4S)-4-fluoro-1-(4,4,4-trifluoro-3-methylbutanoyl)pyrrolidin-3-yl]-2-methylbenzamide] | 0.0018 µM |
| Cc1c(F)cc(-c2cc(C(F)(F)F)c3c(N)ncnn23)cc1C(=O)N[C@@H]1CN(C(=O)C2CC(F)(F)C2)C[C@@H]1F [Example 677, 5-[4-amino-5-(trifluoromethyl)pyrrolo[2,1-f][1,2,4]triazin-7-yl]-N-[(3R,4S)-1-(3,3-difluorocyclobutanecarbonyl)-4-fluoropyrrolidin-3-yl]-3-fluoro-2-methylbenzamide] | 0.0021 µM |
| Cc1ncc(-c2cc(C(F)(F)F)c3c(N)ncnn23)cc1C(=O)NCC(C)(O)CC(C)(C)C (stereo not drawn) [Example 1746, 5-(4-amino-5-(trifluoromethyl)pyrrolo[2,1-f][1,2,4]triazin-7-yl)-N-(2-hydroxy-2,4,4-trimethylpentyl)-2-methylnicotinamide] | 0.074 µM |
| CC(CC(=O)N1C[C@H](F)[C@H](NC(=O)c2cc(-c3cc(C(F)(F)F)c4c(N)ncnn34)ccc2CF)C1)C(F)(F)F (stereo partly drawn) [Example 917, 5-[4-amino-5-(trifluoromethyl)pyrrolo[2,1-f][1,2,4]triazin-7-yl]-N-[(3R,4S)-4-fluoro-1-(4,4,4-trifluoro-3-methylbutanoyl)pyrrolidin-3-yl]-2-(fluoromethyl)benzamide] | 0.0026 µM |
| COc1ncc(-c2cc(C(F)(F)F)c3c(N)ncnn23)cc1C(=O)NCCC(O)(C(F)(F)F)C(F)(F)F [Example 1782, 5-(4-amino-5-(trifluoromethyl)pyrrolo[2,1-f][1,2,4]triazin-7-yl)-2-methoxy-N-(4,4,4-trifluoro-3-hydroxy-3-(trifluoromethyl)butyl)nicotinamide] | 0.239 µM |
| [2H]C([2H])([2H])Oc1nc(C)c(-c2cc(C(F)(F)F)c3c(N)ncnn23)cc1C(=O)N[C@@H]1CN(C(=O)c2ccc(F)cc2)C[C@@H]1F [Example 46, 5-[4-amino-5-(trifluoromethyl)pyrrolo[2,1-f][1,2,4]triazin-7-yl]-N-[(3R,4S)-4-fluoro-1-(4-fluorobenzoyl)pyrrolidin-3-yl]-2-(deutero)methoxy-6-methylpyridine-3-carboxamide] | 0.109 µM |
| Nc1ncnn2c(-c3cccc(C(=O)NCCC(O)c4ccccc4)c3)c(F)cc12 (racemic) [Example 70, 3-{4-amino-6-fluoropyrrolo[2,1-f][1,2,4]triazin-7-yl}-N-(3-hydroxy-3-phenylpropyl) benzamide] | 0.209 µM |
| Cc1cc(F)c(-c2cc(C(F)(F)F)c3c(N)ncnn23)cc1C(=O)N[C@@H]1CN(C(=O)c2ncc(F)cc2F)C[C@@H]1F [Example 819, 5-[4-amino-5-(trifluoromethyl)pyrrolo[2,1-f][1,2,4]triazin-7-yl]-N-[(3R,4S)-1-(3,5-difluoropyridine-2-carbonyl)-4-fluoropyrrolidin-3-yl]-4-fluoro-2-methylbenzamide] | 0.014 µM |
| Cc1cc(C)c(-c2cc(C(F)(F)F)c3c(N)ncnn23)cc1C(=O)N[C@@H]1CN(C(=O)C2CCOC2)C[C@@H]1F (stereo partly drawn) [Example 533, 5-[4-amino-5-(trifluoromethyl)pyrrolo[2,1-f][1,2,4]triazin-7-yl]-N-[(3R,4S)-4-fluoro-1-(oxolane-3-carbonyl)pyrrolidin-3-yl]-2,4-dimethylbenzamide] | 0.334 µM |
| CCC(O)(C(=O)N1C[C@H](F)[C@H](NC(=O)c2cc(-c3cc(C(F)(F)F)c4c(N)ncnn34)ccc2C(F)(F)F)C1)C(F)(F)F (stereo partly drawn) [Example 899, 5-[4-amino-5-(trifluoromethyl)pyrrolo[2,1-f][1,2,4]triazin-7-yl]-N-[(3R,4S)-4-fluoro-1-[2-hydroxy-2-(trifluoromethyl)butanoyl]pyrrolidin-3-yl]-2-(trifluoromethyl)benzamide] | 0.048 µM |
| CCc1c(F)cc(-c2cc(C(F)(F)F)c3c(N)ncnn23)cc1C(=O)N[C@@H]1CN(C(=O)C(C)C(F)(F)F)C[C@@H]1F (stereo partly drawn) [Example 661, 5-[4-amino-5-(trifluoromethyl)pyrrolo[2,1-f][1,2,4]triazin-7-yl]-2-ethyl-3-fluoro-N-[(3R,4S)-4-fluoro-1-(3,3,3-trifluoro-2-methylpropanoyl)pyrrolidin-3-yl]benzamide] | 0.026 µM |
| Cc1ncc(-c2cc(C(F)(F)F)c3c(N)ncnn23)cc1C(=O)N[C@@H]1CN(C(=O)CC(C(F)(F)F)C(F)(F)F)C[C@@H]1F [Example 1233, 5-[4-amino-5-(trifluoromethyl)pyrrolo[2,1-f][1,2,4]triazin-7-yl]-N-[(3R,4S)-4-fluoro-1-[4,4,4-trifluoro-3-(trifluoromethyl)butanoyl]pyrrolidin-3-yl]-2-methylpyridine-3-carboxamide] | 0.0024 µM |
| CCc1c(F)cc(-c2cc(C(F)(F)F)c3c(N)ncnn23)cc1C(=O)N[C@@H]1CN(C(=O)CC(C)(O)C(F)(F)F)C[C@@H]1F (stereo partly drawn) [Example 653, 5-[4-amino-5-(trifluoromethyl)pyrrolo[2,1-f][1,2,4]triazin-7-yl]-2-ethyl-3-fluoro-N-[(3R,4S)-4-fluoro-1-(4,4,4-trifluoro-3-hydroxy-3-methylbutanoyl)pyrrolidin-3-yl]benzamide] | 0.022 µM |
| CC(C(=O)N1C[C@H](F)[C@H](NC(=O)c2cc(-c3cc(C(F)(F)F)c4c(N)ncnn34)cc(F)c2F)C1)C(F)(F)F (stereo partly drawn) [Example 1335, 5-[4-amino-5-(trifluoromethyl)pyrrolo-[2,1-f][1,2,4]triazin-7-yl]-2,3-difluoro-N-[(3R,4S)-4-fluoro-1-(3,3,3-trifluoro-2-methylpropanoyl)pyrrolidin-3-yl]-benzamide] | 0.0044 µM |
| COc1ncc(-c2ccc3c(N)ncnn23)cc1C(=O)N[C@@H]1CN(C(=O)c2ccc(F)cc2)C[C@@H]1F [Example 159, 5-{4-aminopyrrolo[2,1-f][1,2,4]triazin-7-yl}-N-[(3R,4S)-4-fluoro-1-(4-fluorobenzoyl)pyrrolidin-3-yl]-2-methoxypyridine-3-carboxamide] | 0.065 µM |
| COc1ncc(-c2cc(C(F)(F)F)c3c(N)ncnn23)cc1C(=O)N[C@@H]1CN(C(=O)CC2(O)CCCCC2)C[C@@H]1F [Example 1208, 5-[4-amino-5-(trifluoromethyl)pyrrolo[2,1-f][1,2,4]triazin-7-yl]-N-[(3R,4S)-4-fluoro-1-[2-(1-hydroxycyclohexyl)acetyl]pyrrolidin-3-yl]-2-methoxypyridine-3-carboxamide] | 0.216 µM |
| Nc1ncc(-c2cc(C(F)(F)F)c3c(N)ncnn23)cc1C(=O)NCC[C@@H](O)c1ccc(Cl)cc1 [Example 26, 2-amino-5-[4-amino-5-(trifluoromethyl)pyrrolo[2,1-f][1,2,4]triazin-7-yl]-N-[(3R)-3-(4-chlorophenyl)-3-hydroxypropyl]pyridine-3-carboxamide] | 0.0082 µM |
| COc1cc(F)c(-c2cc(CN3CCC(F)(F)CC3)c3c(N)ncnn23)cc1C(=O)N[C@@H]1CN(C(=O)CC(O)(C(F)(F)F)C(F)(F)F)C[C@@H]1F [Example 1635, 5-{4-amino-5-[(4,4-difluoropiperidin-1-yl)methyl]pyrrolo[2,1-f][1,2,4]triazin-7-yl}-4-fluoro-N-[(3R,4S)-4-fluoro-1-[4,4,4-trifluoro-3-hydroxy-3-(trifluoromethyl)butanoyl]pyrrolidin-3-yl]-2-methoxybenzamide] | 0.0081 µM |
| Nc1ncnn2c(-c3cc(F)c(CF)c(C(=O)N[C@@H]4CN(C(=O)C5(F)CC5)C[C@@H]4F)c3)cc(C(F)(F)F)c12 [Example 612, 5-[4-amino-5-(trifluoromethyl)pyrrolo[2,1-f][1,2,4]triazin-7-yl]-3-fluoro-N-[(3R,4S)-4-fluoro-1-(1-fluorocyclopropanecarbonyl)pyrrolidin-3-yl]-2-(fluoromethyl)benzamide] | 0.0031 µM |
| CCc1c(F)cc(-c2cc(C(F)(F)F)c3c(N)ncnn23)cc1C(=O)N[C@@H]1CN(C(=O)C(C)(C)O)C[C@@H]1F [Example 647, 5-[4-amino-5-(trifluoromethyl)pyrrolo[2,1-f][1,2,4]triazin-7-yl]-2-ethyl-3-fluoro-N-[(3R,4S)-4-fluoro-1-(2-hydroxy-2-methylpropanoyl)pyrrolidin-3-yl]benzamide] | 0.025 µM |
